Results taken from PubChem BioAssay (NCI).
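Values below derive from 48-hour exposures of cells grown in 96-well plates, with endpoints linearly interpolated between the two concentrations bracketing the appropriate inhibition level. GI50 marks 50% less growth. Definition used: TGI = concentration required for complete inhibition of growth.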

test system: NCI-H322M lung; assay: NCI tumour cell line growth inhibition, 48 h

Compared with `Cc1ccc(-n2cc(-c3ccc(Cl)cc3)c3c(NN)ncnc32)cc1`, `Cc1ccc(S(=O)(=O)[C@@H](Cl)[C@H]2N=C(Cl)NN=C2c2ccccc2)cc1` is higher in TGI: 14.3 µM for the first, over 100 µM for the second.

`NS(=O)(=O)c1ccc(N=Nc2c(O)[nH]c3ccc(C(=O)NCc4ccncc4)cc23)cc1` and `O=S(=O)(O)c1cccc2cccc(N=Nc3c(O)ccc4ccccc34)c12` cannot be ordered by TGI: over 25 µM for the first, over 100 µM for the second.

Going from `COc1ccc(NC(=O)/C=C(C)/C=C/C=C(C)/C=C/C2=C(C)CCCC2(C)C)cc1` to `CC(C)=CCOc1cc(NC(=S)c2ccsc2C)ccc1Cl`, the TGI rises from 56.8 µM to over 100 µM.

First: Cc1ccc(Oc2ccccc2N)cc1
Second: Cc1ccc(S(=O)(=O)N=NC=C2c3ccccc3N(O)c3ccccc32)cc1
The TGI of the first is higher: over 100 µM for the first, 19.9 µM for the second.

`CCC(COC(=O)CC[C@@H](NC(=O)C(C)NC(=O)C(C)OC1C(O)C(CO)OC(OCc2ccccc2)C1NC(C)=O)C(N)=O)NC1c2ccccc2Nc2cccc([N+](=O)[O-])c21` (stereo partly specified) and `Cc1c(OCc2ccccc2)c(=O)ccn1CCc1c[nH]c2ccccc12` cannot be ordered by TGI: over 100 µM for the first, over 100 µM for the second.

First: CCc1cccc(C)c1N1C(=O)C(=O)C(c2nc3ccccc3o2)C(=O)C1=O
Second: [O-][n+]1c(CN2CCCCC2)nc2cccc3c2c1-c1ccccc1-3
The TGI of the first is higher: over 100 µM for the first, 51.8 µM for the second.

Compared with `NNc1cnn(-c2ccccc2)c(=O)c1Cl`, `COC(=O)C(CCC(=O)CCl)N1C(=O)c2ccccc2C1=O` (stereo unspecified) is lower in TGI: over 100 µM for the first, 39.1 µM for the second.

`CC(C)OP(=O)(OC(C)C)C1=NN(c2ccc([N+](=O)[O-])cc2)C(P(=O)(OC(C)C)OC(C)C)=NN1c1ccc([N+](=O)[O-])cc1` and `O=[N+]([O-])c1ccc2oc(=Nc3ccccc3)c(Nc3ccccc3)nc2c1` cannot be ordered by TGI: over 100 µM for the first, over 100 µM for the second.

`O=c1cccccc1NCCCCCCCNc1cccccc1=O` and `CCOc1ccc(N=NC2C(=O)N(C(=O)CC(=O)Nc3ccccc3)N=C2C)cc1` (stereo unspecified) cannot be ordered by TGI: over 100 µM for the first, over 100 µM for the second.

`O=c1cc(-c2ccc(O)cc2)oc2cc(O[C@@H]3O[C@H](CO)[C@@H](O)[C@H](O)[C@H]3O)cc(O)c12` and `Cc1nc2ccc(Br)cc2c(=O)n1-c1ccc(NC2OCC(O)C(O)C2O)cc1` (stereo unspecified) cannot be ordered by TGI: over 100 µM for the first, over 100 µM for the second.

First: Cc1cc(Cl)ccc1OCC(=O)Nc1nc(N)nc(N)n1
Second: CN1CCN(Cc2ccc(NC(=O)c3cncc(C#Cc4cnc(N)cc4C#N)c3)cc2C(F)(F)F)CC1
The TGI of the first is higher: over 100 µM for the first, 13.9 µM for the second.

First: CCN1CCN(Cc2ccc(NC(=O)Nc3nc4ccc(Oc5ccnc(C(=O)NC)c5)cc4s3)cc2C(F)(F)F)CC1
Second: C[Si](C)(c1ccc(C(=O)O)cc1)c1ccc(C(=O)O)cc1
The TGI of the first is lower: 5.9 µM for the first, over 100 µM for the second.

`C[S+](C)CC1OC(n2cnc3c(N)ncnc32)C(O)C1O` (stereo unspecified) and `COCC1OC(S(=O)(=O)c2ccccc2)C(O)C(OC)C1OC` (stereo unspecified) cannot be ordered by TGI: over 225 µM for the first, over 100 µM for the second.

Compared with `NC(=O)[C@@H](CC1CC1)[C@@H](CCC(F)(F)F)C(=O)N[C@H]1N=C(c2ccccc2)c2cccc(F)c2NC1=O`, `O=C(C#Cc1ccccc1)N1c2ccccc2CC1c1c[nH]c2ccccc12` (stereo unspecified) is lower in TGI: over 100 µM for the first, 39.6 µM for the second.

`COC(=O)[C@@](C)(COC(=O)C(C)(C)C)NC(=O)OC(C)(C)C` and `C#CCNC(=S)N/N=C(\C)c1ccccn1` cannot be ordered by TGI: over 100 µM for the first, over 100 µM for the second.

Going from `Nc1nccc(NCC2(CO)CCC2)n1` to `OCC(CCc1ccccc1I)C1=CCC2(CC1)OCCO2` (stereo unspecified), the TGI falls from over 100 µM to 47.5 µM.

Compared with `Cn1c(=O)c2[nH]c(SCCN3CCOCC3)nc2n(C)c1=S`, `Cc1c2c(cc3c1C(=O)C(=O)C1=C3OC[C@@H]1C)C(C)(C)CCC2` is lower in TGI: over 100 µM for the first, 27.7 µM for the second.

First: NS(=O)(=O)c1ccc(N=Nc2c(O)[nH]c3ccc(C(=O)NCc4ccncc4)cc23)cc1
Second: CCN1CCN(Cc2ccc(NC(=O)Nc3nc4ccc(Oc5ccnc(C(=O)NC)c5)cc4s3)cc2C(F)(F)F)CC1
The GI50 of the first is higher: over 25 µM for the first, 2.24 µM for the second.

Compared with `COc1ccc(NC(=O)/C=C(C)/C=C/C=C(C)/C=C/C2=C(C)CCCC2(C)C)cc1`, `COC(=O)C(CCC(=O)CCl)N1C(=O)c2ccccc2C1=O` (stereo unspecified) is 2-fold lower in GI50: 35.6 µM for the first, 17.8 µM for the second.

Compared with `NC(=O)[C@@H](CC1CC1)[C@@H](CCC(F)(F)F)C(=O)N[C@H]1N=C(c2ccccc2)c2cccc(F)c2NC1=O`, `CN1CCN(Cc2ccc(NC(=O)c3cncc(C#Cc4cnc(N)cc4C#N)c3)cc2C(F)(F)F)CC1` is 11-fold lower in GI50: 37.1 µM for the first, 3.3 µM for the second.

In the case of `C#CCNC(=S)N/N=C(\C)c1ccccn1`, the GI50 is reported as 0.421 µM.
